System: P. aeruginosa strains DSMZ 22644 and ATCC 39324
Assay: MIC determinations (Resazurin, M9 media with oleic acid as carbon source)
Details: Pseudomonas aeruginosa, ATCC39324|DSMZ22644, read-out: MIC (no inhibitory effect on growth up to highest concentration)

## CC(C)(C)C(O)(CCc1ccc(Cl)cc1)Cn1cncn1 (stereo not shown) [tebuconazole]
  MIC: > 128 µg/mL
